By IC50 is meant the dose at which the fit gives 50% viability; a fit beyond the top or the lowest dose is shown as a bound at that dose. AUC, from the same fit, is the share of area under the viability curve across the 256-fold dose range; values near 1 show little effect. An inferred top dose comes from the curve model; the source does not state it.
Compound: CCCCCCCCCCCC1=C(O)C(=O)C=C(O)C1=O [Embelin]
Experiment: Viability of human cancer cell lines after 72 h of drug (GDSC screen)
Details: top dose 32 µM; top dose inferred
Description: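 Human cancer cell lines in 384-well plates, medium with 10% serum, drug for 72 h over a 256-fold dose range (nine 2-fold or five 4-fold steps up to the top dose). Adherent lines were fixed and stained with the nucleic acid dye Syto60, suspension lines read with resazurin; signal relative to control wells, capped at 0 and 100%. One two-parameter sigmoid per drug and line, fitted in a mixed model over all curves with the slope shared within a line.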

8-MG-BA (glioma, adherent)
AUC: 0.632
IC50: 4.5 µM

22RV1 (prostate, adherent)
AUC: 0.807
IC50: 21.4 µM

42-MG-BA (glioma, adherent)
AUC: 0.867
IC50: > 32 µM

201T (lung adenocarcinoma, adherent)
AUC: 0.697
IC50: 8.33 µM

451Lu (melanoma, adherent)
AUC: 0.795
IC50: 14.2 µM

639-V (bladder, adherent)
AUC: 0.792
IC50: 12.2 µM

647-V (bladder, adherent)
AUC: 0.795
IC50: 14.9 µM

697 (lymphoblastic leukaemia, suspension)
AUC: 0.792
IC50: 11.4 µM

769-P (kidney, adherent)
AUC: 0.743
IC50: 10.7 µM

786-0 (kidney, adherent)
AUC: 0.749
IC50: 9.66 µM

5637 (bladder, adherent)
AUC: 0.803
IC50: 14.1 µM

8305C (thyroid, adherent)
AUC: 0.849
IC50: > 32 µM

8505C (thyroid, adherent)
AUC: 0.728
IC50: 9.28 µM

23132-87 (stomach, adherent)
AUC: 0.803
IC50: 16.5 µM

A3-KAW (B-cell lymphoma, suspension)
AUC: 0.726
IC50: 7.45 µM

A4-Fuk (B-cell lymphoma, suspension)
AUC: 0.883
IC50: > 32 µM

A101D (melanoma, adherent)
AUC: 0.643
IC50: 5.48 µM

A172 (glioma, adherent)
AUC: 0.75
IC50: 10.1 µM

A204 (rhabdomyosarcoma, adherent)
AUC: 0.777
IC50: 16.9 µM

A253 (head and neck, adherent)
AUC: 0.678
IC50: 6.18 µM

A375 (melanoma, adherent)
AUC: 0.615
IC50: 3.89 µM

A388 (skin, adherent)
AUC: 0.692
IC50: 7.52 µM

A427 (non-small cell lung carcinoma, adherent)
AUC: 0.726
IC50: 8.82 µM

A431 (skin, adherent)
AUC: 0.704
IC50: 7.31 µM

A498 (kidney, adherent)
AUC: 0.84
IC50: > 32 µM

A673 (rhabdomyosarcoma, adherent)
AUC: 0.793
IC50: 13 µM

A704 (kidney, adherent)
AUC: 0.741
IC50: 9.5 µM

A2058 (melanoma, adherent)
AUC: 0.52
IC50: 2.25 µM

A2780 (ovary, semi-adherent)
AUC: 0.787
IC50: 14.4 µM

ABC-1 (lung adenocarcinoma, adherent)
AUC: 0.87
IC50: > 32 µM

ACHN (kidney, adherent)
AUC: 0.802
IC50: 18.4 µM

AGS (stomach, adherent)
AUC: 0.742
IC50: 9.03 µM

ALL-PO (lymphoblastic leukaemia, suspension)
AUC: 0.55
IC50: 2.77 µM

ALL-SIL (T-cell leukaemia, suspension)
AUC: 0.619
IC50: 4.05 µM

AM-38 (glioma, semi-adherent)
AUC: 0.791
IC50: 14.7 µM

AMO-1 (haematopoietic neoplasm, suspension)
AUC: 0.891
IC50: 27.9 µM

AN3-CA (endometrium, adherent)
AUC: 0.683
IC50: 6.87 µM

ARH-77 (myeloma, suspension)
AUC: 0.825
IC50: 18.3 µM

ASH-3 (thyroid, adherent)
AUC: 0.666
IC50: 5.81 µM

ATN-1 (T-cell lymphoblastic leukaemia, suspension)
AUC: 0.869
IC50: 26.4 µM

AU565 (breast, adherent)
AUC: 0.759
IC50: 12.3 µM

AsPC-1 (pancreas, adherent)
AUC: 0.843
IC50: > 32 µM

BB30-HNC (head and neck, adherent)
AUC: 0.643
IC50: 4.94 µM

BB49-HNC (head and neck, adherent)
AUC: 0.797
IC50: 22.8 µM

BB65-RCC (kidney, adherent)
AUC: 0.731
IC50: 10.2 µM

BC-1 (B-cell lymphoma, suspension)
AUC: 0.625
IC50: 4.18 µM

BC-3 (B-cell lymphoma, suspension)
AUC: 0.951
IC50: > 32 µM

BCPAP (thyroid, adherent)
AUC: 0.78
IC50: 11.9 µM

BE2-M17 (neuroblastoma, adherent)
AUC: 0.951
IC50: > 32 µM

BE-13 (lymphoblastic leukaemia, suspension)
AUC: 0.875
IC50: 27.9 µM

BEN (non-small cell lung carcinoma, adherent)
AUC: 0.883
IC50: > 32 µM

BFTC-905 (bladder, adherent)
AUC: 0.649
IC50: 4.86 µM

BFTC-909 (kidney, adherent)
AUC: 0.791
IC50: 14 µM

BHT-101 (thyroid, adherent)
AUC: 0.828
IC50: 20.6 µM

BHY (head and neck, adherent)
AUC: 0.665
IC50: 5.78 µM

BICR10 (head and neck, adherent)
AUC: 0.743
IC50: 11.3 µM

BICR22 (head and neck, adherent)
AUC: 0.761
IC50: 12.9 µM

BICR31 (head and neck, adherent)
AUC: 0.788
IC50: 14.2 µM

BICR78 (head and neck, adherent)
AUC: 0.845
IC50: 28.8 µM

BL-41 (Burkitt lymphoma, suspension)
AUC: 0.66
IC50: 4.94 µM

BPH-1 (prostate, adherent)
AUC: 0.831
IC50: 23.4 µM

BT-20 (breast, adherent)
AUC: 0.782
IC50: 16.8 µM

BT-474 (breast, adherent)
AUC: 0.795
IC50: 16.9 µM

BT-483 (breast, adherent)
AUC: 0.907
IC50: > 32 µM

BV-173 (chronic myeloid leukaemia, suspension)
AUC: 0.859
IC50: 21.7 µM

Becker (glioma, adherent)
AUC: 0.776
IC50: 14.4 µM

BxPC-3 (pancreas, adherent)
AUC: 0.704
IC50: 8.15 µM

C2BBe1 (large intestine, adherent)
AUC: 0.754
IC50: 12.1 µM

C3A (liver, adherent)
AUC: 0.833
IC50: 21.8 µM

C32 (melanoma, adherent)
AUC: 0.513
IC50: 2.17 µM

C-4-I (cervix, adherent)
AUC: 0.797
IC50: 16.5 µM

C-33-A (cervix, adherent)
AUC: 0.79
IC50: 14.3 µM

CA46 (Burkitt lymphoma, suspension)
AUC: 0.798
IC50: 16.5 µM

CAKI-1 (kidney, adherent)
AUC: 0.861
IC50: > 32 µM

CAL-12T (non-small cell lung carcinoma, adherent)
AUC: 0.753
IC50: 11.8 µM

CAL-27 (head and neck, adherent)
AUC: 0.796
IC50: 15.3 µM

CAL-29 (bladder, adherent)
AUC: 0.791
IC50: 15.5 µM

CAL-33 (head and neck, adherent)
AUC: 0.806
IC50: 16.2 µM

CAL-39 (cervix, adherent)
AUC: 0.663
IC50: 5.78 µM

CAL-51 (breast, adherent)
AUC: 0.653
IC50: 4.98 µM

CAL-54 (kidney, adherent)
AUC: 0.791
IC50: 16.7 µM

CAL-62 (thyroid, adherent)
AUC: 0.701
IC50: 7.1 µM

CAL-72 (osteosarcoma, adherent)
AUC: 0.763
IC50: 13.6 µM

— the supplement of paper PMC4967469
